Assay results reported in PMC12040169 (PLOS Biology, 2025).
The other results are listed elsewhere or left out.

Test system: T1, C. trachomatis L2/434/Bu expressing GFP (CTL2-GFP)
T1 construct: L2/434/Bu GFP intracellular growth in HeLa cells
Parameters: species or system HeLa; C. trachomatis total inclusion area by high-content imaging, normalised to DMSO
Conditions: total inclusion area; 28.5 h, 10 µM; inhibitor
In short: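 Following bulk GFP and resorufin fluorescence reads, infected cells were fixed, Hoechst-stained and imaged on a high-content platform. Inclusion total area and number per well served as growth proxies; nuclei counts indicated host viability. MICs were derived as for the fluorescence assay.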

Q: For `O=C(O)c1cccc(Cn2c(C3CC3)n[nH]c2=S)c1` [CBK288401], which “% of control remaining” value is on record?
A: The value was 61.6963.

Q: With `CCOC(=O)CCSc1c(CC)c(C)nc2ccccc12` [CBK153457T] as the molecule, how does the “% of control remaining” value read?
A: Its value is 91.4525.

Q: `CCn1cc(Cl)c(C(=O)NC2CCN(c3nc(C)cc(=O)[nH]3)CC2)n1` [CBK304614] was tested. Which “% of control remaining” value did it give?
A: Its value is 77.5565.

Q: How did the “% of control remaining” value turn out when `Cc1cc2nc3c(nc2cc1C)CCNCC3` [CBK012302] was run?
A: The value was 94.5279.

Q: With `Cc1ccc(S(=O)(=O)Nc2ccccc2CNc2ccccn2)cc1` [CBK264198] as the molecule, how does the “% of control remaining” value read?
A: The value was 92.417.

Q: How did the “% of control remaining” value turn out when `CCC1CCCCN1C(=O)c1cc2ccccc2s1` (stereo not drawn) [CBK074211] was run?
A: The value was 100.708.

Q: With `CC(=O)NCC(=O)Nc1cnc(-c2cccc(C(F)(F)F)c2)c(-c2cccnc2)n1` [CBK036809] as the molecule, how does the “% of control remaining” value read?
A: The value was 83.7834.

Q: For `COc1cc(/C=C2/SC(=S)N(CCC(=O)N3CCN(C)CC3)C2=O)cc(OC)c1OC` [CBK263656], which “% of control remaining” value is on record?
A: Its value is 94.7472.

Q: Which “% of control remaining” value does the source give for `COc1ccc(C(C)C)cc1-c1cn2ccnc2c(Nc2ccc(N3CCOCC3)cc2)n1` [CBK037338] here?
A: The value was 112.465.

Q: Which “% of control remaining” value does the source give for `CCn1c2cc(C)sc2c2cnn(CCN3CCCC3)c(=O)c21` [CBK284151] here?
A: Its value is 87.4249.

Q: With `Cn1c(=O)n(CC(=O)NCc2ccc(F)cc2)c2cccnc21` [CBK283908] as the molecule, how does the “% of control remaining” value read?
A: Its value is 76.1809.

Q: For `CC1=NC2c3ccsc3C=CC2S1` (stereo not drawn) [CBK008720], which “% of control remaining” value is on record?
A: The value was 111.685.

Q: For `Nc1ncc(-c2cc(C(F)(F)F)cc(C(F)(F)F)c2)nc1NCCCO` [CBK063546], which “% of control remaining” value is on record?
A: The value was 99.5205.

Q: `COc1ccc(CCCC(=O)NCc2ccc(OC3CCNCC3)cc2)cc1OC` [CBK028428T] was tested. Which “% of control remaining” value did it give?
A: Its value is 89.769.

Q: Which “% of control remaining” value does the source give for `CC(Cc1ccsc1)NS(=O)(=O)c1cccc(C(=O)N2CCCC2)c1` (stereo not drawn) [CBK306923] here?
A: The value was 73.2483.

Q: For `COCCc1noc(CC2CCN(c3ncc(C#N)cc3F)CC2)n1` [CBK304153], which “% of control remaining” value is on record?
A: Its value is 79.8111.

Q: Which “% of control remaining” value does the source give for `O=C(NC(C(=O)N/N=C/c1cccs1)c1n[nH]c(=O)c2ccccc12)c1ccccc1` (stereo not drawn) [CBK261250] here?
A: Its value is 85.5255.

Q: `N#Cc1ccc(OCC(=O)Nc2cccnc2-n2cncn2)cc1` [CBK306004] was tested. Which “% of control remaining” value did it give?
A: The value was 20.5652.

Q: With `Cc1n[nH]c2c1C(c1ccc(C(=O)O)cc1)C1=C(COC1=O)N2` (stereo not drawn) [CBK286546] as the molecule, how does the “% of control remaining” value read?
A: The value was 100.945.

Q: With `COc1ccccc1NC(=O)NCCC1SC(NC2CCCCCC2)=NC1=O` (stereo not drawn) [CBK067473] as the molecule, how does the “% of control remaining” value read?
A: Its value is 96.0285.

Q: Which “% of control remaining” value does the source give for `c1csc(-c2nn3c(Cn4nnc5ccccc54)nnc3s2)c1` [CBK268204] here?
A: The value was 93.2674.

Q: Which “% of control remaining” value does the source give for `O=S(=O)(NCc1cccc(F)c1F)c1cc2c(N3CCNCC3)nccc2s1` [CBK047588C] here?
A: Its value is 91.1397.

Q: `O=C1CCC(=O)N1CCOc1nccnc1N1CCN(Cc2ccccc2)CC1` [CBK084288] was tested. Which “% of control remaining” value did it give?
A: The value was 88.9002.

Q: How did the “% of control remaining” value turn out when `Cc1cnc2c(Cl)c(C(=O)N3CCC4(CCCNC4)C3)nn2c1` (stereo not drawn) [CBK307472] was run?
A: The value was 86.2077.

Q: How did the “% of control remaining” value turn out when `COc1ccc([N+](=O)[O-])cc1CSc1nnc(COc2ccccc2C)n1C` [CBK265820] was run?
A: The value was 109.086.

Q: With `O=C(O)c1ccc(CSc2nnc(-c3ccncc3)n2-c2ccc(Br)cc2)cc1` [CBK267559] as the molecule, how does the “% of control remaining” value read?
A: The value was 91.9304.

Q: For `O=[N+]([O-])c1ccc(CN2CCC(Oc3nccnc3OC3CCCCC3)CC2)cc1` [CBK082861T], which “% of control remaining” value is on record?
A: The value was 84.8248.

Q: For `CC(C)C(=O)N1CCC(n2nc(-c3ccco3)ccc2=O)CC1` [CBK284244], which “% of control remaining” value is on record?
A: Its value is 73.1768.

Q: With `CCN(CC)CCN1C(=O)c2oc3cc(C)c(C)cc3c(=O)c2C1c1cc(Br)c(O)c(OC)c1` (stereo not drawn) [CBK266846] as the molecule, how does the “% of control remaining” value read?
A: The value was 111.604.

Q: How did the “% of control remaining” value turn out when `CC(NS(=O)(=O)c1ccccc1)C(=O)Nc1ccc(S(N)(=O)=O)cc1` (stereo not drawn) [CBK266929] was run?
A: The value was 128.752.

Q: For `Cc1ccc(S(=O)(=O)N2CCC(n3c(=O)[nH]c4ccccc43)CC2)cc1Cl` [CBK149691], which “% of control remaining” value is on record?
A: The value was 85.508.

Q: With `CC[C@H]1CN(S(=O)(=O)c2ccccc2)CC[C@H]1CC(=O)N(C)CC#N` [CBK289140] as the molecule, how does the “% of control remaining” value read?
A: Its value is 89.8179.

Q: Which “% of control remaining” value does the source give for `O=C(Nc1ccc(O)cc1C(=O)O)c1cccc(Br)c1` [CBK018511] here?
A: The value was 94.1106.

Q: With `COc1ccc(S(=O)(=O)Nc2c(C(=O)O)sc3ncccc23)cc1OC` [CBK049979] as the molecule, how does the “% of control remaining” value read?
A: Its value is 114.562.

Q: Which “% of control remaining” value does the source give for `CCOC(=O)c1cnn(C2CCCN(Cc3cn(C)nc3C)C2)c1` (stereo not drawn) [CBK304044] here?
A: Its value is 97.6696.

Q: Which “% of control remaining” value does the source give for `O=C(Nc1nc(OCC(F)(F)F)cnc1-c1ccc(Cl)cc1Cl)c1cc2ccccc2s1` [CBK145358] here?
A: Its value is 70.0267.

Q: With `CC(C)c1ccc(S(=O)(=O)Nc2ccc3[nH]c(C(F)(F)F)nc3c2)cc1` [CBK044470] as the molecule, how does the “% of control remaining” value read?
A: Its value is 42.6275.

Q: How did the “% of control remaining” value turn out when `O=C(NCc1ccc(Cl)cc1)c1cc(-c2ccc(F)cc2)nc2ccccc12` [CBK294451] was run?
A: The value was 89.1451.

Q: Which “% of control remaining” value does the source give for `CN(Cc1ccccc1)C(=O)[C@H]1C[C@@H](O)[C@H](O)[C@@H]2N=C(Nc3ccc(Cl)cc3)S[C@@H]21` [CBK288949] here?
A: The value was 98.4036.

Q: How did the “% of control remaining” value turn out when `c1cc2c3c(ccc(CSCCc4ccncc4)c3c1)CC2` [CBK261074G] was run?
A: The value was 76.4527.

Q: How did the “% of control remaining” value turn out when `COc1cccc(NC(=O)CN(c2ccccc2)S(=O)(=O)c2ccc(Cl)cc2)c1` [CBK265366] was run?
A: Its value is 85.3342.

Q: With `Fc1ccc(Nc2cncc(-c3cccs3)n2)cc1Cl` [CBK065813] as the molecule, how does the “% of control remaining” value read?
A: The value was 55.7687.

Q: Which “% of control remaining” value does the source give for `N#Cc1ccc(Sc2cccc(F)c2)c(F)c1` [CBK002909] here?
A: Its value is 84.0625.

Q: `CCc1nccn1CCC(=O)NC1CCCN(Cc2ccccc2F)C1` (stereo not drawn) [CBK306652] was tested. Which “% of control remaining” value did it give?
A: The value was 74.5638.

Q: `CCNC(=O)c1ccc(-c2ccc(S(C)(=O)=O)cc2)nc1` [CBK158882] was tested. Which “% of control remaining” value did it give?
A: Its value is 103.424.

Q: Which “% of control remaining” value does the source give for `CC(NC(=O)N1CCNC(=O)C1)c1ccccc1` (stereo not drawn) [CBK155877] here?
A: The value was 95.9925.

Q: `O=c1n(-c2ccc3c(c2)OCO3)ccn1S(=O)(=O)c1ccc2c(c1)OCCO2` [CBK106636] was tested. Which “% of control remaining” value did it give?
A: Its value is 108.437.

Q: For `O=C(Cn1c(-c2ccc(F)cc2)cc2cccnc21)N1CCCC1` [CBK285384], which “% of control remaining” value is on record?
A: Its value is 80.5943.

Q: How did the “% of control remaining” value turn out when `Cc1cccn2cc(COC(=O)c3ccc(F)cc3N)nc12` [CBK298310] was run?
A: Its value is 83.679.

Q: How did the “% of control remaining” value turn out when `Cc1ccc(C)n1NC(=O)c1ccccc1[N+](=O)[O-]` [CBK266151] was run?
A: The value was 90.2842.

Q: Which “% of control remaining” value does the source give for `N#Cc1cccc(S(=O)(=O)Nc2cccc3[nH]ccc23)c1` [CBK155771] here?
A: The value was 90.6684.
